Hit rate of the full screen: of about 48,000 compounds, about 450 (0.94%) were called active. Inconclusive results (about 19%) are left out. Calls come from the whole dose curve; as a rule, active = well fitted inhibition curve with a large enough effect; inconclusive = small, poorly fitted or top-dose-only effect; inactive = no such curve, though single readings can be large or run the other way. The list shows a part of the results.
Assay: Primary qHTS for Identification of Small Molecule Inhibitors of Huntingtin Promoter Activity; note: nearly all actives have a fitted effect of over 50% in size
Conditions: HEK293 HTT promoter firefly luciferase reporter (activity 0% = vehicle and -100% = no light), 24 h; series mostly up to 57.5 µM; activity change, negative = inhibition: at the top concentration
In short: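 HEK293 Fluc reporter, 2,500 cells/well, 24 h pre-culture; cpds up to 57.5 uM final, 24 h 37 degrees C; Dual-Glo, 10 min RT; normalized vehicle = 0%, zero RLU = -100%.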

Activity change, negative = inhibition, inactive:
COc1ccc(C)cc1NC(=O)NCc1cccn1Cc1ccccc1 -7.07%
COc1ccccc1NC(=O)CN(C)S(=O)(=O)c1ccc2c(c1)c(=O)n(C)c(=O)n2C -10.3%
Cc1ccc(CCNC(=O)NCc2noc3ccccc23)cc1 -5.96%
O=C(NCc1ccccc1)c1ccc2nc(CCc3ccccc3)oc2c1 42.8%
CC1CCCN(S(=O)(=O)c2ccc3[nH]c(=O)cc(C(=O)NCCc4ccc(Cl)cc4)c3c2)C1 (stereo not given) -12.5%
CCOCCCN(C(=O)Nc1ccc(Cl)cc1)C1CCN(C(C)=O)CC1 -4.17%
Cc1c(CNC2CCCCCC2)c(C(=O)O)c(C)n1Cc1ccc(F)cc1Cl -17.2%
O=C(COc1ccc(Cl)cc1)Nc1nnc2n1CCS2 -2.29%
O=C1CN2Cc3c(ccc(Cl)c3Cl)N=C2N1 -7.29%
COc1ccc(S(=O)(=O)NCCc2csc3nc(-c4ccc(OC)c(OC)c4)nn23)cc1C -0.187%
CC(C)(C)c1ccc(C(=O)Nc2cc(-c3nc4ccccc4o3)ccc2Cl)cc1 6.85%
CCCCn1c(=O)c2oc3ccccc3c2n(CC(=O)Nc2cccc(Cl)c2C)c1=O 6.16%
CCc1ccccc1NC(=O)C1CCN(S(=O)(=O)c2ccc3[nH]c(=O)ccc3c2)CC1 -4.3%
COc1ccc(CNC(=O)c2nc(Cn3nc(C)c(Br)c3C)no2)cc1OC -40.5%
COc1cc(NC(=O)c2sc3nc4n(c(=O)c3c2C)CCCCC4)cc(OC)c1OC -16.1%
COc1ccc(CCNC(=O)C(=O)Nc2ccc(C)cc2)cc1OC -10.1%
COc1ccc(N2CCN(S(=O)(=O)c3c(C)[nH]c(=O)[nH]c3=O)CC2)cc1 0.183%
CCN(C(=O)c1cc2cc3ccc(OC)cc3nc2o1)c1cccc(C)c1 -14.6%
Cc1ccc(C)c(NC(=O)CSc2nc(-c3ccccc3)cc(=O)[nH]2)c1 -4.5%
COc1ccc(-c2nc(C(=O)Nc3ccc(C(C)=O)cc3)nn2-c2cccc(Cl)c2)cc1 -24.7%
CC(C)NCC(O)COc1ccc(COCCOC(C)C)cc1 (stereo not given)
COc1ccc(CN(Cc2ccco2)c2cnc(S(C)(=O)=O)nc2C(=O)Nc2ccc(F)cc2)cc1 -28.1%
COc1ccc(OC)c(-c2csc(-c3c(N)c(C(=O)c4ccccc4)n4ccccc34)n2)c1 0.64%
Cn1c(=O)n(C/C=C/c2ccccc2)c(=O)c2c1nc1n2CCN1c1ccccc1 -2.87%
CCCCOc1ccc(CNC(=O)C2COc3ccc(OC)cc3C2)cc1 (stereo not given) -10.4%
COc1ccc(S(=O)(=O)N(CC(=O)Nc2cccc(C(F)(F)F)c2)c2ccc(C)cc2)cc1 -32.7%
CCOc1ccc(C(=O)c2cn(CC(=O)Nc3ccc4c(c3)OCO4)c3ccc(OCC)cc3c2=O)cc1 -19.8%
COc1ccc(-n2c(=O)c3c(c4cc(OC)ccc4n3C)n(Cc3cc(C)ccc3C)c2=O)cc1 0.202%
COC(=O)c1cccnc1-n1c(=O)c2cccnc2n(CC(=O)Nc2c(C)cc(C)cc2C)c1=O -10.6%
O=C(Cn1ncn2nc(-c3cccs3)cc2c1=O)NCc1cccc(Br)c1 -12.8%
Cc1ccc(NC(=O)CN2C(=O)COc3ccc(S(=O)(=O)N4CCCCC4)cc32)cc1N(C)C -6.31%
Cc1cccc(CNC(=O)c2ccc(NC(=O)N3CC(C)Sc4ccccc43)cc2)c1 (stereo not given) -7.9%
CC(C)CN(CCNC(=O)CN1C(=O)CSc2ccc(S(=O)(=O)N3CCOCC3)cc21)CC(C)C -11.4%
CCOc1ccc(S(=O)(=O)N(CC(=O)Nc2ccc3c(c2)OCO3)c2ccccc2)cc1 -9.61%
O=C(/C=C\c1ccc2c(c1)OCO2)NC1CC(=O)N(c2cccc(F)c2)C1 (stereo not given) -19.5%
COc1ccccc1CNC(=O)c1ccc2c(c1)CCN2S(=O)(=O)c1ccccc1 -22.3%
O=C(Nc1c(-c2ccc(F)cc2)nc2ccccn12)c1ccccc1F -7.94%
Cc1ccc(-n2c3c(c(=O)[nH]c2=O)C(NC(=O)c2ccccc2C)(C(F)(F)F)C(=O)N3)cc1 (stereo not given) -6.69%
COc1cccc(/C=C/c2onc(C)c2S(=O)(=O)N2CCC(C(=O)N3CCC(C)CC3)CC2)c1 -20.5%
COc1ccccc1N1CCN(C(=O)CSc2n[nH]c(-c3ccccc3)n2)CC1 -19.3%
COc1ccc(-c2cn3c(n2)sc2cc(C(=O)Nc4cccc(OC)c4)ccc23)cc1 -13.4%
COC(=O)c1scc(-c2ccc(C)cc2)c1S(=O)(=O)Nc1ccc(N(C)C)cc1 0.569%
CCOC(=O)C1=C(CN2CCN(c3ccccc3F)CC2)NC(=O)NC1c1ccc(Cl)cc1 (stereo not given) -7.55%
CCOc1ccc(NC(=O)CC2C(=O)N(c3ccccc3)C(=O)N2Cc2ccc3c(c2)OCO3)cc1 (stereo not given) -17.7%
Cc1nc2c(-c3ccccc3)c(C)nn2c(C)c1CCC(=O)NCc1ccc(F)cc1 -11.6%
Cc1c(Cl)cccc1-n1nc(C)c2c(C(=O)NCc3ccccc3)cc(C3CC3)nc21 -21.6%
Cn1c(=O)oc2cc(S(=O)(=O)Nc3ccccc3O)ccc21 -10.5%
Cc1ccc(-c2cc(NC(=O)COc3ccc(Cl)cc3C)on2)cc1 16.1%
COc1ccc(-c2cc(C(F)(F)F)nc(SCC(=O)N3CCC(C)CC3)n2)cc1 -3.06%
Cc1ccc(NC(=O)N2CCN(C)c3ncccc32)cc1C 5.2%
O=C(CN1C(=O)COc2ccc(S(=O)(=O)N3CCCCCC3)cc21)NCCc1ccccc1 -2.99%
COc1cc(OC)c(N(C)C(=O)Cn2ncc3c(=O)oc4ccccc4c32)cc1Cl -1.03%
Cc1ccc(CN2C(=O)N(c3ccccc3)C(=O)C2CC(=O)Nc2ccccc2)cc1 (stereo not given) -18.4%
COCCNC(=O)c1c(NC(=O)c2cc(=O)c3cc(Cl)ccc3o2)sc2c1CCCC2 2.7%
COC(=O)c1ccccc1NC(=O)N1CCC(n2c(C)nc3cccnc32)CC1 0%
COc1ccccc1NC(=O)Cn1nnc(C(=O)Nc2ccccc2Br)c1N -8.64%
CC(=O)N1CCN(c2csc3ccc(Br)cc3c2=O)CC1 20.2%
Cc1ccc(CNC(=O)c2cc(=O)c3cc(C)cc(C)c3o2)cc1 18.5% [at 11.5 µM]
CCC(C)NC(=O)CSc1nc(-c2ccc(F)cc2)cc(C(F)(F)F)n1 (stereo not given) -5.74%
COC(=O)c1ccccc1NC(=O)c1cnc2sc(N3CCOCC3)nn2c1=O 5.99%
CCOc1ccc(NC(=O)c2cc3cc4cc(OC)ccc4nc3s2)cc1 -2.2%
Cc1cccc(NS(=O)(=O)c2ccc3c(c2)OCC(C(=O)N2CCCC2)O3)c1C (stereo not given) -27%
COc1cccc(C(=O)Nc2cccc(C(=O)OCc3cc(=O)n4c5c(sc4n3)CCCC5)c2)c1 -23.3%
COc1ccc2cc(CNc3ccc(C)cc3)c(=O)n(CC(=O)Nc3cccc(C(F)(F)F)c3)c2c1 -29%
CCOC(=O)CSc1nc2c(sc3cccc(F)c32)c(=O)n1Cc1ccc(OC)cc1 -8.03%
O=c1c2cccnc2n(Cc2cccc(F)c2)c(=O)n1Cc1ccccc1Cl -19.4%
Cc1ccc(S(=O)(=O)c2cn(CC(=O)Nc3ccc4c(c3)OCO4)c3ccccc3c2=O)cc1C -24.7%
COc1ccccc1-n1c(=O)c2c3c(sc2n(Cc2ccccc2F)c1=O)CN(C(C)=O)CC3 0.478%
O=C(NCCS(=O)(=O)N1CCN(c2ccc(F)cc2)CC1)C1CC(=O)N(c2ccccc2)C1 (stereo not given) -5.64%
CC(C)c1cc(-c2nc(-c3ccc(Br)cc3)no2)n[nH]1 26%
CCCN1CCN(CCNC(=O)Nc2ccccc2OCC)CC1 -4.96%
Cc1cc2c(n1-c1ccc(C(=O)NCCc3ccccc3)cc1)CCC(C)C2 (stereo not given) 29.6%
CCCN(Cc1cccs1)C(=O)Nc1ccc(Br)cc1F 11.8%
COc1ccc2[nH]c(=O)c(CN(C(=O)c3cccc(Cl)c3)c3cccc(C)c3)cc2c1 -9.16%
C[C@H]1C[C@H]2[C@@H]3CCC4=CC(=O)C=C[C@]4(C)[C@@H]3C(=O)C[C@]2(C)[C@@]1(O)C(=O)CO -23.2%
CCN1CCN(c2ncc3c(n2)CCN(Cc2ccc(OC)c(OC)c2)C3)CC1 -9.02%
CCN1C(=O)c2ccccc2S(=O)c2ccc(C(=O)N3CCN(c4ccccc4OC)CC3)cc21 (stereo not given) -35.4%
COc1cccc(CNC(=O)CCCCCn2c(=O)[nH]c3cc(OC)c(OC)cc3c2=O)c1 -9.1%
CCOC(=O)c1c(C)[nH]c(C)c1S(=O)(=O)NCC(=O)NCc1ccccc1Cl -9.43%
COc1cc(C(CC(=O)Nc2cc(C)ccn2)N2Cc3ccccc3C2=O)cc(OC)c1OC (stereo not given) -11.2%
Cc1cc2c(n1-c1ccc(C(=O)NCc3ccc(OC(C)C)cc3)cc1)CCCC2 -2.01%
COc1cc(-c2oc3ccc(C)cc3c(=O)c2O)cc(OC)c1OC -25.5%
COc1ccc2c(c1)c1c(c(=O)n(-c3cccc(C)c3)c(=O)n1CC(=O)NCC1CCCO1)n2C (stereo not given) -7.1%
COc1ccccc1CNC(=O)CCCn1c(=O)c2ccccc2n(Cc2ccccc2C#N)c1=O -9.61%
CCOc1ccccc1C(=O)Nc1ccc(S(=O)(=O)Nc2ncccn2)cc1 -9.29%
Cc1cccc(Cc2c(C)nc3nc(SCc4ccccc4F)nn3c2C)c1 -10.3%
CC(C)=CCC/C(C)=C/CC/C(C)=C/C(=O)OCC(=O)[C@@]1(O)CC[C@H]2[C@@H]3CCC4=CC(=O)C=C[C@]4(C)[C@H]3[C@@H](O)C[C@@]21C 9.08%
COc1ccc(OC)c(NC(=O)Cn2c(=O)n(Cc3nc(C)no3)c(=O)c3ccccc32)c1 -8.87%
COc1ccc(Cl)cc1NC(=O)NCCc1c(C)nn(C)c1C -12.6%
CC(=O)Nc1ccc(NC(=O)c2cc(-c3cccs3)on2)cc1 10.4%
O=C(CSC1=Nc2ccccc2N=C(c2ccc(F)cc2)C1)Nc1ccc(Cl)cc1 -1.99%
Cc1ccc(Sc2c(C)nn(C(=O)c3ccc(Br)cc3)c2C)cc1 -20.2%
COc1ccc(Nc2ncnc3onc(C)c23)c(OC)c1 -9.07%
CC(C)(C)c1nnc(NS(=O)(=O)c2ccc(N)cc2)s1 -2.1%
COc1ccc(N2CCN(C(=O)C(C)n3c(=O)cc(C(F)(F)F)c4c(C)nn(C)c43)CC2)cc1 (stereo not given) -5.77%
